From the supplement of paper PMC8728848
This is one part of the list.

Tests used:
Assay in all cases: glycan array binding signal (z-score within array); higher = stronger binding
Details in all cases: glycan notation: IUPAC condensed, linker removed; mutation: D22R
Neu5Ac(a2-3)GalNAc = target: Neu5Ac(a2-3)GalNAc
Method in brief: (§1)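 Columns mapping to the same glycan were averaged after glycan names were converted to IUPAC-condensed notation. The data come from 3228 arrays in the Consortium for Functional Glycomics database, limited to those with an available protein sequence. Binding is reported as a within-array Z-score averaged across arrays of one protein sequence and across linkers.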

[1] = target: Neu5Ac(a2-3)GalNAc(b1-4)GlcNAc
Method in brief: as §1

[2] = target: Neu5Ac(a2-3)[GalNAc(b1-4)]Gal(b1-4)Glc
Method in brief: as §1

[3] = target: Neu5Ac(a2-3)[GalNAc(b1-4)]Gal(b1-4)GlcNAc
Method in brief: as §1

[4] = target: Neu5Ac(a2-3)[GalNAc(b1-4)]Gal(b1-4)GlcNAc(b1-3)GalNAc
Method in brief: as §1

[5] = target: Neu5Ac(a2-3)[Neu5Ac(a2-6)]GalNAc
Method in brief: as §1

Neu5Ac(a2-6)Gal = target: Neu5Ac(a2-6)Gal
Method in brief: as §1

[6] = target: Neu5Ac(a2-6)Gal(b1-3)GlcNAc(b1-3)[Gal(b1-4)GlcNAc(b1-6)]Gal(b1-4)Glc
Method in brief: as §1

Neu5Ac(a2-6)Gal(b1-4)Glc = target: Neu5Ac(a2-6)Gal(b1-4)Glc
Method in brief: as §1

[7] = target: Neu5Ac(a2-6)Gal(b1-4)GlcNAc
Method in brief: as §1

[8] = target: Neu5Ac(a2-6)Gal(b1-4)GlcNAc(b1-2)Man
Method in brief: as §1

[9] = target: Neu5Ac(a2-6)Gal(b1-4)GlcNAc(b1-2)Man(a1-3)Man(b1-4)GlcNAc(b1-4)GlcNAc
Method in brief: as §1

[10] = target: Neu5Ac(a2-6)Gal(b1-4)GlcNAc(b1-2)Man(a1-3)[Gal(b1-4)GlcNAc(b1-2)Man(a1-6)]Man(b1-4)GlcNAc(b1-4)GlcNAc
Method in brief: as §1

[11] = target: Neu5Ac(a2-6)Gal(b1-4)GlcNAc(b1-2)Man(a1-3)[GlcNAc(b1-2)Man(a1-6)]Man(b1-4)GlcNAc(b1-4)GlcNAc
Method in brief: as §1

[12] = target: Neu5Ac(a2-6)Gal(b1-4)GlcNAc(b1-2)Man(a1-3)[GlcNAc(b1-4)][Neu5Ac(a2-6)Gal(b1-4)GlcNAc(b1-2)Man(a1-6)]Man(b1-4)GlcNAc(b1-4)GlcNAc
Method in brief: as §1

[13] = target: Neu5Ac(a2-6)Gal(b1-4)GlcNAc(b1-2)Man(a1-3)[Man(a1-6)]Man(b1-4)GlcNAc(b1-4)GlcNAc
Method in brief: as §1

[14] = target: Neu5Ac(a2-6)Gal(b1-4)GlcNAc(b1-2)Man(a1-3)[Neu5Ac(a2-3)Gal(b1-4)GlcNAc(b1-2)Man(a1-6)]Man(b1-4)GlcNAc(b1-4)GlcNAc
Method in brief: as §1

[15] = target: Neu5Ac(a2-6)Gal(b1-4)GlcNAc(b1-2)Man(a1-3)[Neu5Ac(a2-6)Gal(b1-4)GlcNAc(b1-2)Man(a1-6)]Man(b1-4)GlcNAc(b1-4)GlcNAc
Method in brief: as §1

[16] = target: Neu5Ac(a2-6)Gal(b1-4)GlcNAc(b1-2)Man(a1-3)[Neu5Ac(a2-6)Gal(b1-4)GlcNAc(b1-2)Man(a1-6)]Man(b1-4)GlcNAc(b1-4)[Fuc(a1-6)]GlcNAc
Method in brief: as §1

[17] = target: Neu5Ac(a2-6)Gal(b1-4)GlcNAc(b1-2)Man(a1-6)Man(b1-4)GlcNAc(b1-4)GlcNAc
Method in brief: as §1

[18] = target: Neu5Ac(a2-6)Gal(b1-4)GlcNAc(b1-2)Man(a1-6)[Gal(b1-4)GlcNAc(b1-2)Man(a1-3)]Man(b1-4)GlcNAc(b1-4)GlcNAc
Method in brief: as §1

[19] = target: Neu5Ac(a2-6)Gal(b1-4)GlcNAc(b1-2)Man(a1-6)[GlcNAc(b1-2)Man(a1-3)]Man(b1-4)GlcNAc(b1-4)GlcNAc
Method in brief: as §1

[20] = target: Neu5Ac(a2-6)Gal(b1-4)GlcNAc(b1-2)Man(a1-6)[Man(a1-3)]Man(b1-4)GlcNAc(b1-4)GlcNAc
Method in brief: as §1

[21] = target: Neu5Ac(a2-6)Gal(b1-4)GlcNAc(b1-2)[Neu5Ac(a2-6)Gal(b1-4)GlcNAc(b1-4)]Man(a1-3)[GlcNAc(b1-4)][Neu5Ac(a2-6)Gal(b1-4)GlcNAc(b1-2)[Neu5Ac(a2-6)Gal(b1-4)GlcNAc(b1-6)]Man(a1-6)]Man(b1-4)GlcNAc(b1-4)GlcNAc
Method in brief: as §1

[22] = target: Neu5Ac(a2-6)Gal(b1-4)GlcNAc(b1-2)[Neu5Ac(a2-6)Gal(b1-4)GlcNAc(b1-4)]Man(a1-3)[GlcNAc(b1-4)][Neu5Ac(a2-6)Gal(b1-4)GlcNAc(b1-4)Man(a1-6)]Man(b1-4)GlcNAc(b1-4)GlcNAc
Method in brief: as §1

[23] = target: Neu5Ac(a2-6)Gal(b1-4)GlcNAc(b1-2)[Neu5Ac(a2-6)Gal(b1-4)GlcNAc(b1-6)]Man(a1-6)[Neu5Ac(a2-6)Gal(b1-4)GlcNAc(b1-2)Man(a1-3)][GlcNAc(b1-4)]Man(b1-4)GlcNAc(b1-4)GlcNAc
Method in brief: as §1

[24] = target: Neu5Ac(a2-6)Gal(b1-4)GlcNAc(b1-3)Gal(b1-3)GlcNAc
Method in brief: as §1

[25] = target: Neu5Ac(a2-6)Gal(b1-4)GlcNAc(b1-3)Gal(b1-4)GlcNAc
Method in brief: as §1

[26] = target: Neu5Ac(a2-6)Gal(b1-4)GlcNAc(b1-3)Gal(b1-4)GlcNAc(b1-2)Man(a1-3)[Neu5Ac(a2-6)Gal(b1-4)GlcNAc(b1-3)Gal(b1-4)GlcNAc(b1-2)Man(a1-6)]GalNAc
Method in brief: as §1

[27] = target: Neu5Ac(a2-6)Gal(b1-4)GlcNAc(b1-3)Gal(b1-4)GlcNAc(b1-3)Gal(b1-4)GlcNAc
Method in brief: as §1

[28] = target: Neu5Ac(a2-6)Gal(b1-4)GlcNAc(b1-3)Gal(b1-4)GlcNAc(b1-3)Gal(b1-4)GlcNAc(b1-2)Man(a1-3)[Neu5Ac(a2-6)Gal(b1-4)GlcNAc(b1-3)Gal(b1-4)GlcNAc(b1-3)Gal(b1-4)GlcNAc(b1-2)Man(a1-6)]GalNAc
Method in brief: as §1

[29] = target: Neu5Ac(a2-6)Gal(b1-4)GlcNAc(b1-3)Gal(b1-4)GlcNAc(b1-3)GalNAc
Method in brief: as §1

[30] = target: Neu5Ac(a2-6)Gal(b1-4)GlcNAc(b1-3)Gal(b1-4)GlcNAc(b1-3)[Neu5Ac(a2-6)Gal(b1-4)GlcNAc(b1-3)Gal(b1-4)GlcNAc(b1-6)]GalNAc
Method in brief: as §1

[31] = target: Neu5Ac(a2-6)Gal(b1-4)GlcNAc(b1-3)Gal(b1-4)GlcNAc(b1-6)[Gal(b1-3)]GalNAc
Method in brief: as §1

[32] = target: Neu5Ac(a2-6)Gal(b1-4)GlcNAc(b1-3)Gal(b1-4)[Fuc(a1-3)]GlcNAc(b1-3)Gal(b1-4)[Fuc(a1-3)]GlcNAc
Method in brief: as §1

[33] = target: Neu5Ac(a2-6)Gal(b1-4)GlcNAc(b1-3)GalNAc
Method in brief: as §1

[34] = target: Neu5Ac(a2-6)Gal(b1-4)GlcNAc(b1-3)[Neu5Ac(a2-6)Gal(b1-4)GlcNAc(b1-6)]GalNAc
Method in brief: as §1

[35] = target: Neu5Ac(a2-6)Gal(b1-4)GlcNAc(b1-6)GalNAc
Method in brief: as §1

B1: MpL2 (Macrolepiota procera) (protein)
chain: MSTQVSSGQTYKITNVKAGTVIRLSGEDNKSIIGYPYHSGKNQQWTFNWTGKAWTLRSASSGSYLGIEGTPADGTRLVAVNDPFEWHIWRDEANENAFRIFVPFTNYNLDLSGYGDTTPGTPVQLWWTWEGLHQTWTIDRP
glycan array binding signal (z-score) (Neu5Ac(a2-3)GalNAc): -0.524 | glycan array binding signal (z-score) [1]: -0.201 | glycan array binding signal (z-score) [2]: 0.07 | glycan array binding signal (z-score) [3]: -0.422 | glycan array binding signal (z-score) [4]: 1.32 | glycan array binding signal (z-score) [5]: -0.364 | glycan array binding signal (z-score) (Neu5Ac(a2-6)Gal): 0.467 | glycan array binding signal (z-score) [6]: -0.986 | glycan array binding signal (z-score) (Neu5Ac(a2-6)Gal(b1-4)Glc): -0.303 | glycan array binding signal (z-score) [7]: -0.396 | glycan array binding signal (z-score) [8]: -0.185 | glycan array binding signal (z-score) [9]: 0.019 | glycan array binding signal (z-score) [10]: -0.214 | glycan array binding signal (z-score) [11]: -0.302 | glycan array binding signal (z-score) [12]: -0.361 | glycan array binding signal (z-score) [13]: 0.099 | glycan array binding signal (z-score) [14]: -0.117 | glycan array binding signal (z-score) [15]: -0.119 | glycan array binding signal (z-score) [16]: -0.123 | glycan array binding signal (z-score) [17]: 0.141 | glycan array binding signal (z-score) [18]: -0.819 | glycan array binding signal (z-score) [19]: -0.238 | glycan array binding signal (z-score) [20]: 0.217 | glycan array binding signal (z-score) [21]: -0.644 | glycan array binding signal (z-score) [22]: -0.393 | glycan array binding signal (z-score) [23]: -0.457 | glycan array binding signal (z-score) [24]: 0.558 | glycan array binding signal (z-score) [25]: -0.623 | glycan array binding signal (z-score) [26]: 0.451 | glycan array binding signal (z-score) [27]: -0.201 | glycan array binding signal (z-score) [28]: 2.64 | glycan array binding signal (z-score) [29]: -0.401 | glycan array binding signal (z-score) [30]: 2.97 | glycan array binding signal (z-score) [31]: 0.273 | glycan array binding signal (z-score) [32]: -0.04 | glycan array binding signal (z-score) [33]: -0.516 | glycan array binding signal (z-score) [34]: -0.455 | glycan array binding signal (z-score) [35]: 0.51
